Measurements: the supplement of paper PMC12217912
This is one part of the list. Sequences were assembled here from the parent chain. Inactive controls read about 0.05.

B1: TEV protease; numbered along this chain (parent)
chain: MGESLFKGPRDYNPISSSICHLTNESDGHTTSLYGIGFGPFIITNKHLFRRNNGTLVVQSLHGVFKVKDTTTLQQHLVDGRDMIIIRMPKDFPPFPQKLKFREPQREERICLVTTNFQTKSMSSMVSDTSCTFPSGDGIFWKHWIQTKDGQCGSPLVSTRDGFIVGIHSASNFTNTNNYFTSVPKNFMELLTNQEAQQWVSGWRLNADSVLWGGHKVFMVKPEEPFQPVKEATQL

Variants of: B1
Assay: raw area under fraction-flipped curve 0-4 h after induction (AUC4h, not background-subtracted), DNA-recorder readout of cleavage of the substrate (dimensionless); higher = more cleavage of the substrate by the protease variant
Settings: temperature: 34 °C; time window: 0-4 h after rhamnose induction
Description: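 In vivo DNA recorder in E. coli TOP10(DE3) ΔrhaA at 34 °C. Each TEVp single-site mutant (parent TEVp 0) is paired with a single-site variant of the 7-mer TEVs (canonical ENLYFQ|S). The substrate sits between flexible linkers in a Bxb1-sfGFP-TEVs-SsrA fusion, so cleavage stabilises Bxb1 and speeds flipping of a recombination array, read by NGS. The value is the raw area under the fraction-flipped curve over 0-4 h after rhamnose induction (AUC4h), with ≥20 reads per time point. It is not background-subtracted; inactive controls average about 0.047.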
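Note: Bxb1 expression induced with 0.2% (w/v) L-rhamnose at OD600 near 0.5, cultures sampled hourly, flipped fraction per protease–substrate barcode pair counted by paired-end Illumina sequencing.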

| Variant | area with substrate ENLYAQS | area with substrate ENLYCQS | area with substrate ENLYDQS | area with substrate ENLYEQS | area with substrate ENLYGQS | area with substrate ENLYHQS | area with substrate ENLYIQS | area with substrate ENLYKQS | area with substrate ENLYLQS | area with substrate ENLYMQS | area with substrate ENLYNQS | area with substrate ENLYPQS | area with substrate ENLYQQS | area with substrate ENLYRQS | area with substrate ENLYSQS | area with substrate ENLYTQS | area with substrate ENLYVQS | area with substrate ENLYWQS | area with substrate ENLYYQS |
| --- | --- | --- | --- | --- | --- | --- | --- | --- | --- | --- | --- | --- | --- | --- | --- | --- | --- | --- | --- |
| MGESLFKGPRDYNPISSSICHLTNESDGHTTSLYGIGFGPFIITNKHLFRRNNGTLVVQSLHGVFKVKDTTTLQQHLVDGRDMIIIRMPKDFPPFPQKLKFREPQWEERICLVTTNFQTKSMSSMVSDTSCTFPSGDGIFWKHWIQTKDGQCGSPLVSTRDGFIVGIHSASNFTNTNNYFTSVPKNFMELLTNQEAQQWVSGWRLNADSVLWGGHKVFMVKPEEPFQPVKEATQL [R106W] | 0.0676 | 0.0791 | 0.0692 | 0.0595 | 0.0692 | 0.067 | 0.109 | 0.0576 | 0.0846 | 0.079 | 0.0703 | 0.0673 | 0.0679 | 0.0566 | 0.0817 | 0.0718 | 0.0724 | 0.0937 | 0.0794 |
| MGESLFKGPRDYNPISSSICHLTNESDGHTTSLYGIGFGPFIITNKHLFRRNNGTLVVQSLHGVFKVKDTTTLQQHLVDGRDMIIIRMPKDFPPFPQKLKFREPQREERICLVTTNFQTKSMSSMVSDTGCTFPSGDGIFWKHWIQTKDGQCGSPLVSTRDGFIVGIHSASNFTNTNNYFTSVPKNFMELLTNQEAQQWVSGWRLNADSVLWGGHKVFMVKPEEPFQPVKEATQL [S130G] | 0.0653 | – | 0.0567 | 0.0756 | – | 0.0612 | – | 0.0722 | – | 0.0966 | 0.0628 | 0.0897 | – | – | – | – | 0.134 | 0.0819 | 0.0694 |
| MGESLFKGPRDYNPISSSICHLTNETDGHTTSLYGIGFGPFIITNKHLFRRNNGTLVVQSLHGVFKVKDTTTLQQHLVDGRDMIIIRMPKDFPPFPQKLKFREPQREERICLVTTNFQTKSMSSMVSDTSCTFPSGDGIFWKHWIQTKDGQCGSPLVSTRDGFIVGIHSASNFTNTNNYFTSVPKNFMELLTNQEAQQWVSGWRLNADSVLWGGHKVFMVKPEEPFQPVKEATQL [S26T] | 0.0794 | 0.0834 | 0.0703 | 0.0693 | 0.0757 | 0.0699 | 0.115 | 0.0878 | – | 0.08 | – | 0.0684 | – | 0.0556 | 0.0596 | – | – | 0.0535 | 0.0593 |
| MGESLFKGPRDDNPISSSICHLTNESDGHTTSLYGIGFGPFIITNKHLFRRNNGTLVVQSLHGVFKVKDTTTLQQHLVDGRDMIIIRMPKDFPPFPQKLKFREPQREERICLVTTNFQTKSMSSMVSDTSCTFPSGDGIFWKHWIQTKDGQCGSPLVSTRDGFIVGIHSASNFTNTNNYFTSVPKNFMELLTNQEAQQWVSGWRLNADSVLWGGHKVFMVKPEEPFQPVKEATQL [Y12D] | 0.0688 | 0.104 | 0.0644 | 0.071 | 0.0655 | 0.0599 | 0.155 | 0.101 | – | 0.0804 | – | 0.0794 | 0.0798 | 0.0602 | – | 0.0823 | – | 0.0844 | 0.0498 |
| MGESLFKGPRDYNPISSSICHLTNESDGHTTSLYGIGFGPFIITNKHLFRRNNGTLVVQSLHGVFKVKDTTTLQQHLVDGRDMIIIRMPKDFPPFPQKLKFREPQREERICLVTTNFQTKSMSSMVSDTSCTFPSGDGIFWKHWIQTKDGQCGSPLVSTRDGFIVGIHSASNFTNTNNYFTSVPKNFMELLTNQEAQQWVSGWRLNADSVLWGGHKVFMVKYEEPFQPVKEATQL [P222Y] | 0.0868 | – | – | 0.062 | – | 0.0507 | 0.115 | 0.0063 | 0.102 | 0.0719 | – | 0.0776 | – | – | – | – | 0.109 | 0.0731 | – |
| MGESLFKGPRDYNPISSSICHLTNESDWHTTSLYGIGFGPFIITNKHLFRRNNGTLVVQSLHGVFKVKDTTTLQQHLVDGRDMIIIRMPKDFPPFPQKLKFREPQREERICLVTTNFQTKSMSSMVSDTSCTFPSGDGIFWKHWIQTKDGQCGSPLVSTRDGFIVGIHSASNFTNTNNYFTSVPKNFMELLTNQEAQQWVSGWRLNADSVLWGGHKVFMVKPEEPFQPVKEATQL [G28W] | 0.0536 | 0.0701 | 0.0557 | 0.0584 | 0.0619 | 0.0646 | 0.0851 | 0.0566 | 0.0787 | 0.0618 | 0.0579 | 0.052 | 0.0541 | 0.055 | 0.0641 | – | 0.083 | 0.0533 | 0.0492 |
| MGESLFKGPRDYNPISSSICHLTNESDGHTTSLYGIGFGPFIITNKHLFRRNNGTLVVQSLHGVFKVKDTTTLQQHLVDGRDMIIIRMPKDFPPFPQKLKFREPQREERICLVTTNFQTKSMSSMVSDTSCTFPSGDGIFWKHWIQTKDGQCGSPLVSTRTGFIVGIHSASNFTNTNNYFTSVPKNFMELLTNQEAQQWVSGWRLNADSVLWGGHKVFMVKPEEPFQPVKEATQL [D161T] | 0.0677 | – | 0.0584 | 0.0712 | 0.0584 | 0.068 | 0.0741 | 0.0349 | 0.0781 | 0.0884 | 0.0626 | 0.0611 | 0.0535 | – | 0.0597 | – | 0.107 | 0.0697 | 0.0357 |
| MGESLFKGPRDYNPISSSICHLTNESDGHTTSLYGIGFGPFIITNKHLFRRNNGTLVVQSLHGVFKVKDTTTLQQHLVDGRDMIIIRMPKDFPPFPQKLKFREPQREERICLVTTNFQTKSMSMMVSDTSCTFPSGDGIFWKHWIQTKDGQCGSPLVSTRDGFIVGIHSASNFTNTNNYFTSVPKNFMELLTNQEAQQWVSGWRLNADSVLWGGHKVFMVKPEEPFQPVKEATQL [S124M] | 0.052 | – | 0.0616 | 0.061 | – | 0.0805 | 0.12 | – | – | 0.0629 | 0.0478 | 0.0744 | 0.0995 | 0.0608 | 0.0595 | 0.0776 | 0.122 | 0.0813 | – |
| MGESLFKGPRDYNPISSSIHHLTNESDGHTTSLYGIGFGPFIITNKHLFRRNNGTLVVQSLHGVFKVKDTTTLQQHLVDGRDMIIIRMPKDFPPFPQKLKFREPQREERICLVTTNFQTKSMSSMVSDTSCTFPSGDGIFWKHWIQTKDGQCGSPLVSTRDGFIVGIHSASNFTNTNNYFTSVPKNFMELLTNQEAQQWVSGWRLNADSVLWGGHKVFMVKPEEPFQPVKEATQL [C20H] | 0.0461 | 0.0484 | 0.0568 | 0.0412 | 0.0613 | 0.0501 | 0.0632 | – | – | 0.0557 | 0.0471 | 0.0408 | 0.0475 | 0.0475 | 0.0518 | 0.0565 | 0.059 | 0.0484 | 0.0494 |
